From the RNAGym collection of RNA variant scans (doi:10.7554/elife.90254)
Read counts are not given, so values of variants with three or more changes are uncertain.

B1: LINE1-full (parent)
chain: UACGUAGGUGGUUUUCCCCUGAUAGUGCUAAGGGGGCCUGGAAGUUUGGACUGGGCAGAGCUCAACACAGCGUGGCAAAGUGGCUGUGGCUAGACUGCCUCUCUGGAUUCCUCGUCACUCAGCAGGGCAUCUCUGAGAGAAAUGCC

Variants of: B1
Assay: self-cleavage, relative activity (ratio to wild type); higher = more cleavage; in vitro, sequencing; the parent is a self-cleaving ribozyme

Question: Which self-cleavage does the source give for U14C A22G A124U A129U here?
Answer: 1.2

Question: For U13C U39C U87A, which self-cleavage is on record?
Answer: 0.08

Question: For U14A A59G A136G, which self-cleavage is on record?
Answer: 0.1

Question: For U14A G72A C90A, which self-cleavage is on record?
Answer: 0.05

Question: For U13C G34U U46C U62A A64G U73C, which self-cleavage is on record?
Answer: 0

Question: For U13C U20A U96G U115C, which self-cleavage is on record?
Answer: 0

Question: Which self-cleavage does the source give for U14C A22G U26A here?
Answer: 0.71

Question: With U13C C51U A107G as the variant, how does the self-cleavage read?
Answer: 0.65

Question: For U13C U39C A43U U85A U130C, which self-cleavage is on record?
Answer: 0.14

Question: Which self-cleavage does the source give for U13C G35A U45C A64U here?
Answer: 0.38

Question: With U14A U26C A79U U143C as the variant, how does the self-cleavage read?
Answer: 1.09

Question: With U13C U115A A136G A141G as the variant, how does the self-cleavage read?
Answer: 1.25

Question: Which self-cleavage does the source give for U13C C28U A59G A121G here?
Answer: 0.26

Question: Which self-cleavage does the source give for U13C U45A U112A U115C A121U here?
Answer: 1.12

Question: For U13C U14C U29C U46C, which self-cleavage is on record?
Answer: 0.57

Question: For U13C U20C A79G U112A A140G, which self-cleavage is on record?
Answer: 0

Question: With U13C U45C C66U as the variant, how does the self-cleavage read?
Answer: 0.06

Question: For U14A A50G U81A U109C A138G, which self-cleavage is on record?
Answer: 0.37

Question: For U14A U73C A77U, which self-cleavage is on record?
Answer: 0.54

Question: For U13C C38A A107U U115A, which self-cleavage is on record?
Answer: 2.1

Question: With U13C U26G G34A A140G as the variant, how does the self-cleavage read?
Answer: 1.49

Question: With U13C U87A A117U as the variant, how does the self-cleavage read?
Answer: 0.12

Question: For U13C U104A U119A, which self-cleavage is on record?
Answer: 1.15

Question: For U14A A92G U96C, which self-cleavage is on record?
Answer: 0.24

Question: Which self-cleavage does the source give for U13C G40A A57G C98U here?
Answer: 0.07

Question: For U13C U23C U109A A138G, which self-cleavage is on record?
Answer: 0.78

Question: With U13C C37G U85C as the variant, how does the self-cleavage read?
Answer: 0.17

Question: For U13G A22G U112C A117G, which self-cleavage is on record?
Answer: 2.3

Question: For U14A U20A U62C A77U A136G, which self-cleavage is on record?
Answer: 0.48

Question: Which self-cleavage does the source give for U14C A24G A67C C90U here?
Answer: 0

Question: Which self-cleavage does the source give for U13C C90U A138U here?
Answer: 0.03

Question: With U13C U102C U132A as the variant, how does the self-cleavage read?
Answer: 1.99

Question: Which self-cleavage does the source give for U13C U46A C68U C90G U130C U132C here?
Answer: 0

Question: For U13C U62C A141G, which self-cleavage is on record?
Answer: 0

Question: Which self-cleavage does the source give for U13C U91C C99U U130A here?
Answer: 0.13

Question: Which self-cleavage does the source give for U13C G21A U29C U46A here?
Answer: 1.67

Question: Which self-cleavage does the source give for U13C C28U A42U U73C here?
Answer: 0.51

Question: With U13C G55A U108C as the variant, how does the self-cleavage read?
Answer: 0.91

Question: With U13C U23C U45C A121U G126C as the variant, how does the self-cleavage read?
Answer: 1.97

Question: Which self-cleavage does the source give for U13C U14C A64G U130A A140G here?
Answer: 0.59

Question: Which self-cleavage does the source give for U14A U81A A140G here?
Answer: 0.61

Question: With U14A U62C G86A G144A as the variant, how does the self-cleavage read?
Answer: 0.09

Question: Which self-cleavage does the source give for U13C U20C U130C here?
Answer: 1.58

Question: Which self-cleavage does the source give for U13C G34A A142G here?
Answer: 1

Question: For U13C U15C U102C A107G, which self-cleavage is on record?
Answer: 0.89

Question: With U14A U91G U108C C113U U115C as the variant, how does the self-cleavage read?
Answer: 0

Question: Which self-cleavage does the source give for U13C G53U U96C U102A here?
Answer: 0.2

Question: For U13C G34A U52G U62C U112A, which self-cleavage is on record?
Answer: 0.1

Question: For U13C U45C A94U, which self-cleavage is on record?
Answer: 0.3

Question: With U14A A57U U96C as the variant, how does the self-cleavage read?
Answer: 0.07

Question: With U13C U46C A124G U132C as the variant, how does the self-cleavage read?
Answer: 1.74

Question: With U14C A31G U130C as the variant, how does the self-cleavage read?
Answer: 1.29

Question: Which self-cleavage does the source give for U13G U39A U85C here?
Answer: 0.71

Question: With U13C U52G A129U U132A as the variant, how does the self-cleavage read?
Answer: 1.56

Question: Which self-cleavage does the source give for U13C U20A U115C A138U here?
Answer: 0.94

Question: Which self-cleavage does the source give for U13G G74A U81C here?
Answer: 0.88

Question: Which self-cleavage does the source give for U13C U45C A77G here?
Answer: 1.58

Question: With U13C U23A U91A U112C as the variant, how does the self-cleavage read?
Answer: 0.77

Question: For U13C U15C A64U A141G, which self-cleavage is on record?
Answer: 0.47

Question: Which self-cleavage does the source give for U13C U15C A43U A94G U104C A121U A142G here?
Answer: 0

Question: With U14C A22U G54A U87A U115C A117G A140G as the variant, how does the self-cleavage read?
Answer: 0.06

Question: Which self-cleavage does the source give for U13G U96C U112A U134A here?
Answer: 0.54

Question: Which self-cleavage does the source give for U13C U39C A117U A121G here?
Answer: 1.97

Question: Which self-cleavage does the source give for U14A U96A U130C here?
Answer: 0.05

Question: With U13C U14C G32A G49A U102C as the variant, how does the self-cleavage read?
Answer: 0.72

Question: For U14A U15A A30G C128U, which self-cleavage is on record?
Answer: 0.36

Question: For U13G U130C U143C, which self-cleavage is on record?
Answer: 0.71

Question: For U13C U29A U102C U112C, which self-cleavage is on record?
Answer: 1.26

Question: Which self-cleavage does the source give for U13C U39A A42U A79U U85C U87G here?
Answer: 0.19

Question: With U13C G40A U47C A57U as the variant, how does the self-cleavage read?
Answer: 0.1

Question: For U13G U14A U46A A77G G86A U87A G135A, which self-cleavage is on record?
Answer: 0.18

Question: With U14C A22U U26A as the variant, how does the self-cleavage read?
Answer: 1.14

Question: Which self-cleavage does the source give for U13C U23C U104C here?
Answer: 0.95

Question: For U14C A30G C103U, which self-cleavage is on record?
Answer: 0.92

Question: Which self-cleavage does the source give for U13C U109C A141G here?
Answer: 1.63

Question: Which self-cleavage does the source give for U13C G54A U119C U130C here?
Answer: 1.44

Question: Which self-cleavage does the source give for U13C U47C A69G G70C U108C here?
Answer: 0

Question: Which self-cleavage does the source give for U14A U20C A92G here?
Answer: 0.06

Question: With U14C A24G U85C as the variant, how does the self-cleavage read?
Answer: 1.15

Question: With U13C U45C U91C A92U as the variant, how does the self-cleavage read?
Answer: 0

Question: For U13C U46C C56G A140G A142U, which self-cleavage is on record?
Answer: 0.1

Question: Which self-cleavage does the source give for U14C A22C U91C U96C A142G here?
Answer: 0.54

Question: For U13C C98A A107G, which self-cleavage is on record?
Answer: 0.12
